Hit rate of the full screen: of about 48,000 compounds, about 450 (0.94%) were called active. Not shown: some 19% with an inconclusive outcome. Calls come from the whole dose curve; as a rule, active = well fitted inhibition curve with a large enough effect; inconclusive = small, poorly fitted or top-dose-only effect; inactive = no such curve, though single readings can be large or run the other way. This is one part of the list.
Test: Primary qHTS for Identification of Small Molecule Inhibitors of Huntingtin Promoter Activity; note: nearly all actives have a fitted effect of over 50% in size
Details: HEK293 HTT promoter firefly luciferase reporter (activity 0% = vehicle and -100% = no light), 24 h; series mostly up to 57.5 µM; activity change, negative = inhibition: at the top concentration
Summary of the method: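 Firefly luciferase signal from promoter-reporter HEK293 cells was scaled between vehicle (0%) and zero RLU (-100%). Compounds were tested at final concentrations of up to 57.5 uM over 24 h at 37 degrees C. PTC124 at 50 uM final served as control inhibitor.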
Potency is the fitted concentration of half-maximal effect.

Activity change, negative = inhibition, inactive:
Cc1sc2c(c1C)c(=O)n(Cc1ccccc1)c(=O)n2CC(=O)Nc1cccc(Cl)c1 -22.5%
CCOC(=O)Cn1cnc2c(cnn2-c2ccc(C)c(C)c2)c1=O 56.5%
Cc1ccccc1C(=O)NCc1ccc2c(c1)CCN2C(=O)c1ccc(F)cc1 -5.48%
Cc1nn2c(=O)cc(COC(=O)COc3ccccc3C)nc2s1 -11.5%
O=C(O)C1=CC(c2ccc(Br)cc2)n2ncnc2N1 (stereo not drawn) -4.67%
CCOC(=O)[C@H](CCc1ccccc1)N[C@@H](C)C(=O)N1Cc2ccccc2C[C@H]1C(=O)O 3.5%
CCOc1ccc(C(=O)c2cn(CC(=O)Nc3ccc(C)c(C)c3)c3ccc(OCC)cc3c2=O)cc1 -24.2%
COc1ccc(N2CC(NC(=O)c3ccc(S(=O)(=O)N4CCOCC4)cc3)CC2=O)cc1 (stereo not drawn) -4.9%
COc1ccccc1NC(=O)C1CCN(c2ncnc3c2nc2n3CCCCC2)CC1 -22%
CCS(=O)(=O)c1nc(S(=O)(=O)c2ccc(C)cc2)c(NCc2ccccc2Cl)s1 -24.4%
CCOC(=O)CSc1ncnc2c1c(-c1ccccc1)cn2-c1ccc(OC)cc1 21.2%
COc1ccc(OCC(=O)N2CCN(C(=O)c3ccc(OC)cc3)CC2)cc1 -7.09%
CCOc1ccc(Nc2nc(Nc3ccc(OCC)cc3)nc(N3CCOCC3)n2)cc1 -6.86%
COc1ccc(CCNC(=O)CCCn2c(=O)c3cccn3c3ccc(F)cc32)cc1OC -7.74%
O=C(COc1ccc(Br)cc1)Nc1cccc2cccnc12 -1.91%
COC(=O)c1ccc(Cl)cc1NC(=O)N1CCC(CN2CCC(C)CC2)CC1 -15%
CCc1cccc(NC(=O)c2coc(=O)c3ccccc23)c1 -20.7%
COc1cccc(NC(=O)c2oc3ccccc3c2NC(=O)Cc2cccc(C)c2)c1 -21.6%
Cc1cn2c(=O)cc(COC(=O)C(C)Oc3ccccc3)nc2s1 (stereo not drawn) -19.1%
CCc1ccc(-n2nc(CO)c(C(=O)NCCCCc3ccccc3)n2)cc1 -5.76%
O=C(NCc1ccc(Cl)cc1)c1cc(-c2ccc(F)cc2)on1 4.17%
CCOc1ccc(S(=O)(=O)n2nc(C)c(S(=O)(=O)N3CCCCC3)c2C)cc1 -7.6%
O=C(Nc1ccc(Cl)cc1C(F)(F)F)c1cc(S(=O)(=O)N2CCOCC2)ccc1F -16.3%
CC(C)(C)OC(=O)N1CCC(c2c(C(=O)NCc3ccco3)cnn2-c2ccccc2Cl)CC1 -7.79%
Cc1nn(CCCC(=O)NCc2ccccc2)c(=O)c2cc3sccc3n12 -9.89%
COC(=O)c1ccccc1NS(=O)(=O)c1ccc2c(c1)CCCN2C(C)=O -21.1%
COc1ccc(C(=O)Nc2cc3c(cc2N2CCCC2)n(C)c(=O)c(=O)n3C)cc1OC -26.7%
N/C(=N\N=C\c1ccc(Cl)cc1)N/N=C/c1ccc(Cl)cc1 1.91%
CCCC(=O)n1nc(-c2cccnc2)nc1NCc1ccc(OC)cc1 -11.8%
Cc1cccc(C)c1NC(=O)Cn1c(=O)n(Cc2ccc3c(c2)OCO3)c(=O)c2oc3ccccc3c21 -4.42%
CCOc1cc(C(=O)Nc2ccc(-c3nc4ccccc4s3)cc2Cl)cc(OCC)c1OCC 31.7%
CCOc1ccc(OCC)c(NC(=O)C(NS(=O)(=O)c2cccs2)c2ccccc2)c1 (stereo not drawn) -20%
COc1ccc(C(=O)Nc2cc(S(=O)(=O)c3ccc(Cl)cc3)c(O)c(C)c2C)cc1 11.8%
O=C(Nc1ccc(Br)cc1)C(Cc1ccccc1)NS(=O)(=O)c1cccc2nsnc12 (stereo not drawn) -17.4%
COc1ccccc1NC(=O)Cn1nc(-c2ccc(C)cc2)c2c(c1=O)CCCC2 -22.1%
Cc1ccc(CNC(=O)c2c(C)oc3nc(C)nc(N4CCOCC4)c23)cc1 -4.41%
CCc1ccc(-n2nc3cc(C)c(NC(=O)c4cc(OC)cc(OC)c4)cc3n2)cc1 7.45%
Cc1cccc(CSCc2ccc(C(=O)NCCc3ccccc3)o2)c1 0.0114%
CC(C)c1ccc2oc3nc(N)c(C(=O)O)cc3c(=O)c2c1
COc1ccccc1CCNC(=O)Cc1c(C)c2cc3c(C)coc3cc2oc1=O 3.08%
O=C(c1cc2ccccc2oc1=O)N1CCN(c2ccc(F)cc2)CC1 -0.223%
Nc1c(-c2nc(-c3ccccc3)no2)nnn1CC(=O)Nc1cccc(F)c1 -4.96%
CCOc1cc(-c2ccc(OC(=O)c3ccc(C)cc3)c(OC)c2)cc(=O)c2c(C)oc(C)c12 -19%
CCN(CC)CCN(C(=O)c1ccco1)c1nc2cc(C)cc(C)c2s1 -4.45%
CC(=O)c1ccc(NC(=O)CN(C)S(=O)(=O)c2cc3c(cc2Cl)NC(=O)CO3)cc1 -8.75%
CCOC(=O)c1ccc(Nc2c(-c3cccc(O)c3)nc3nc[nH]n23)cc1 -22.5%
O=C(NCc1cccs1)c1ccc(CSc2nc3ccncc3n2Cc2ccccc2)cc1 0.392%
CC1CCC(NC(=O)c2ccc(CS(=O)(=O)c3cccc(C(F)(F)F)c3)o2)CC1 (stereo not drawn) -25.7%
COc1cccc(C2=NS(=O)(=O)N(C)C(C(=O)Nc3ccccc3SC)=C2)c1 -11.1%
Cc1ccc(C)c(Cn2c(=O)n(Cc3ccccc3)c(=O)c3c2c2cc(C)ccc2n3C)c1 15.9%
Cc1ccc(C(=O)Nc2ccc(S(=O)(=O)Nc3onc(C)c3C)cc2)cc1 0%
CCOC(=O)c1ccc(NC(=O)Cn2c(=O)cc(C(F)(F)F)c3c(C)nn(C)c32)cc1 0%
Fc1ccc(CSc2nc(NCc3ccccc3)c3ccccc3n2)cc1 -23%
COc1ccc(-c2cc(C(=O)Nc3cccc(O)c3)on2)cc1OC 28.3%
COc1ccc(CNC(=O)Cn2c(=O)cc(C)c3c(C)nn(-c4cccc(Cl)c4C)c32)cc1 0.478%
COc1cc(NC(=O)NCCN2CCN(c3ccccc3)CC2)cc(OC)c1OC -16.4%
Cc1ccc(N(C)C(=O)CCS(=O)(=O)c2cc3c(cc2Cl)NC(=O)CO3)cc1 -8.61%
CCN(CC)c1ccc2cc(-c3nc(-c4ccccc4F)no3)c(=O)oc2c1 42%
Cc1cccc(NC(=O)CSc2nc3c(sc4ccccc43)c(=O)n2CCCC(=O)NC2CCCC2)c1 -1.69%
CCc1ccc(NC(=O)Nc2nnc(N(C)C3CCCCC3)s2)cc1 -22.7%
CC(=O)c1ccc(NC(=O)Cn2c(=O)nc(-c3ccccc3)c3cc(Cl)ccc32)cc1 -19.1%
CCOC(=O)C1CCCN(c2ncnc3c2nnn3C)C1 (stereo not drawn) -0.447%
COc1cccc(NC(=O)c2oc3ccccc3c2NC(=O)c2cc3ccccc3o2)c1 -1.89%
COCCn1c(SCC(=O)c2c[nH]c3ccccc23)nc2cc(C(=O)NC(C)C)ccc2c1=O -28.8%
Cc1nc2ccn(Cc3cccnc3)c(=O)c2cc1C(=O)Nc1ccc(F)cc1F 0.172%
COCCCNC(=O)c1ccc(C)c(-n2c(C)nc3cccnc32)c1 -7.27%
CCOc1ccc(-c2nnc(SCC(=O)c3ccc(Br)cc3)n2-c2ccccc2)cc1 -23.6%
CCOc1ccc(CCNC(=O)c2cc3c(s2)-c2c(C)cccc2OC3)cc1 -2.28%
O=C(CN1C(=O)CCc2cc(S(=O)(=O)N3CCOCC3)ccc21)NCc1ccc(Cl)cc1 -15.8%
Cc1ccc(NC(=O)CSc2nnc(-c3ccc(Br)cc3)o2)c(C)c1 -9.65%
CCOC(=O)Cn1c(=O)oc2cc(S(=O)(=O)N3CCC(C(=O)OCC)CC3)ccc21 -24.4%
Cc1ccc(OCC(=O)Nc2ccc3nc(SCCOc4ccccc4)sc3c2)cc1 -9.25%
COc1ccc(NC(=O)Cn2nnc3sc4c(c3c2=O)CCCC4)cc1 -16.9%
Cc1ccc(NC(=O)CN2C(=O)COc3ccc(S(=O)(=O)Nc4ccccc4)cc32)c(C)c1 -5.32%
Cc1cc(C)c(NC(=O)CSc2nc3ccncc3[nH]2)c(C)c1 -29.4%
Cc1ccc(C2=NC(c3ccccc3)=Nc3ccc(Cl)cc3N2)cc1 34.3%
COC(=O)c1cc2oc3ccccc3c2n1Cc1c(C)cc(C)cc1C -20.6%
COCCCNC(=O)CSc1nc(-c2ccc(OC)c(OC)c2)[nH]c1-c1ccc(F)cc1 -12.4%
Cc1cc(C)c2c(=O)cc(C(=O)NCc3ccc(S(N)(=O)=O)cc3)oc2c1 4.43%
CCc1ccc(NC(=O)CCc2nnc3n(C)c(=O)c4sccc4n23)cc1 -14.7%
COc1cc2ccccc2cc1C(=O)Nc1cccc(-c2nc3cc(C)ccc3o2)c1C -0.803%
Cc1nn2c(=O)cc(COC(=O)COc3ccc(F)cc3)nc2s1 -6.74%
Cc1cccc(NC(=O)C2CCCN(S(=O)(=O)c3ccc(Br)s3)C2)c1 (stereo not drawn) 14.5%
Cc1nc2cccnc2n1-c1cccc(C(=O)NCCc2ccc(S(N)(=O)=O)cc2)c1 1.03%
CCCCCn1c(=O)[nH]c2cc(C(=O)Nc3ccc(F)c(F)c3)ccc2c1=O -1.51%
Cc1cc(SCC(=O)NCc2ccc(Cl)cc2)nc(=O)[nH]1 -14.2%
CCN(CC)CCOC(=O)c1ccc(NC(=O)c2cc3c(=O)n(CC)c4ccccc4c3s2)cc1 -5.87%
Cc1ccc(S(=O)(=O)N2CCC(C(=O)NCc3ccccc3Cl)CC2)cc1 -17.8%
CCN1CCN(Cc2c(O)ccc3c(C)c(-c4ccc(OC)cc4)c(=O)oc23)CC1 -22.7%
Cc1ccccc1C(=O)Nc1cccc(OCc2cc(=O)n3c(C)csc3n2)c1 13.7%
COc1ccc(NC(=O)C2=CC(c3ccco3)=NS(=O)(=O)N2C)cc1 -21%
Oc1cc(O)cc(C=Cc2ccc(O)c(O)c2)c1 13.2%
Cc1ccc(C)c(NC(=O)CN2CCSc3ccc(S(=O)(=O)N4CCCC4)cc32)c1 -33.4%
COc1ccccc1N1CCN(c2ncnc3c2nnn3C)CC1 18.2%
CCOC(=O)c1oc2ccc(S(=O)(=O)n3nc(-c4ccc(C)cc4)cc3N)cc2c1C -11.8%
COc1ccc(NC(=O)C2CCN(S(=O)(=O)c3cccc(-c4noc(C)n4)c3)CC2)cc1OC -29.8%
CC(C)c1ccc(CN(C(=O)c2cc3ccccc3oc2=O)C2CCS(=O)(=O)C2)cc1 (stereo not drawn) -3.66%

Potency, active:
N#Cc1c(-n2ncnc2-c2ccccc2C(F)(F)F)sc2c1CCCCC2 1120 nM

— PubChem BioAssay AID1508623 (National Center for Advancing Translational Sciences (NCATS), 2021)
